# Reference: the supplement of paper PMC3334620
# In all, about 33,000 sequences were measured (“E-score (-0.5 to 0.5)”: median about -0.012, highest 2% from about 0.29 on). The list shows a part of the results.
# Target: T1, Ybr033w (UniProt P38073)
# T1 sequence: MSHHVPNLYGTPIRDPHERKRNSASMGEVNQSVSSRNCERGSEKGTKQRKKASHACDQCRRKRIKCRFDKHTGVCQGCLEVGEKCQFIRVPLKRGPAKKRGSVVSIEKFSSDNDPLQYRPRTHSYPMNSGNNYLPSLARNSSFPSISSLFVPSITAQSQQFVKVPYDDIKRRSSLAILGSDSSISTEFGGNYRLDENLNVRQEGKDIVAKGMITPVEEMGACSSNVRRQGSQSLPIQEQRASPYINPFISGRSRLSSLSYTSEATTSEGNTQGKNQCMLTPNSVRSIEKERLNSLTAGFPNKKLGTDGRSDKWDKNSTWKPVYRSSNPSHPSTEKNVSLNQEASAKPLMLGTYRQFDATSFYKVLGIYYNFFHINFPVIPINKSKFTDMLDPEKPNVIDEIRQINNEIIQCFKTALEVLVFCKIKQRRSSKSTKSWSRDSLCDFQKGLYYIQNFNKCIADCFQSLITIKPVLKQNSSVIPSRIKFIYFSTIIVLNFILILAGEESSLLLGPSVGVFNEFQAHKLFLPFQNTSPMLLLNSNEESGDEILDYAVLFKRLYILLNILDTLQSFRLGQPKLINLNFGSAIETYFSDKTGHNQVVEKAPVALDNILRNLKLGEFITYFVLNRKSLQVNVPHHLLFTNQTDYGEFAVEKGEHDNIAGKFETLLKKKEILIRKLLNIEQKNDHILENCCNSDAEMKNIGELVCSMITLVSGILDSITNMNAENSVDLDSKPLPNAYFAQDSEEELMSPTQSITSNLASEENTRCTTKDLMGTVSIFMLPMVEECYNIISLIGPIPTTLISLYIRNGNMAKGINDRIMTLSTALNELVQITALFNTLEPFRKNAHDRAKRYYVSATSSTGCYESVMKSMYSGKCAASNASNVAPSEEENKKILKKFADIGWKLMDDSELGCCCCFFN
# Assay: PBM E-score (8-mer binding enrichment) (E-score (-0.5 to 0.5)); higher = stronger / more preferred TF binding; most listed sequences are background and not binding sites
# Conditions: protein concentration: 200 nM; construct: GST-full length
# Method in brief: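 Yeast transcription factors carrying a GST tag, as full-length proteins or DNA-binding domains, were produced by PURExpress in vitro transcription/translation. About 100-200 nM protein was applied to universal all-10-mer Agilent arrays, double-stranded by primer extension on fresh or once-stripped slides. Bound protein was detected with fluorescent anti-GST, and scans were normalised with masliner. The Universal PBM Analysis Suite gave each ungapped eight-base word, pooled with its reverse complement, an E-score, a modified Wilcoxon-Mann-Whitney statistic.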
row,Sequence,PBM E-score
1,AAATTTCC,0.258
2,ATGAGTTA,0.0961
3,CAGTGGCA,-0.155
4,CAGAATTA,-0.00887
5,AGGGATGA,-0.0393
6,GAGGAAGA,0.124
7,CAGCAAGG,-0.0777
8,ACAAATGT,0.0955
9,GTTCCATA,0.0434
10,CCGCGCTA,0.0648
11,CTAGATAA,0.196
12,AATTGCAT,0.179
13,ATCCTCTG,-0.0786
14,ATGGCCCC,-0.322
15,GCGATACA,0.0586
16,CGAAGTAA,0.168
17,ACATCTGA,-0.0959
18,ATATCAAT,0.245
19,ATACGGCA,0.0151
20,ACGTGTAT,0.105
21,AACACTAG,0.0881
22,GGACAACC,-0.136
23,CGAGGCCC,-0.19
24,CCCTGAGA,-0.277
25,CCAACGTA,0.0497

row,Sequence,PBM E-score
1,ATCCATGC,0.0934
2,GGTTTAGA,0.0155
3,AAGATCCG,-0.0767
4,ACTGTGCC,-0.0903
5,CTAACGAC,-0.0273
6,TAGTATAA,0.181
7,GCGTCCCA,-0.312
8,AAAGCCCT,-0.0951
9,CGTAAGAC,-0.122
10,ATCTGGGG,-0.162
11,TACGCAGA,-0.0151
12,TGAAACAA,0.171
13,AACCTCCG,-0.113
14,GAGCGGAC,-0.325
15,TATATCGA,0.215
16,ATTCACTA,0.175
17,CCAGGACC,-0.243
18,GTGTACCA,0.108
19,GATGTGGC,-0.209
20,CTCGCGTA,0.012
21,CATTGTCA,0.0329
22,GACTTCTC,0.113
23,CGAAAGCA,0.169
24,AGGTAGAC,-0.212
25,ATAGGGTC,-0.169

row,Sequence,PBM E-score
1,CAACGTGG,-0.00282
2,ACCATTAC,0.0447
3,CCAACCCC,-0.15
4,TGCACCCA,-0.062
5,GTTAGCTA,-0.0877
6,ATCAAATG,0.216
7,GCAGACAC,0.0165
8,GTTAAGCA,-0.0464
9,CCGGAATA,0.412
10,AGAATGCA,0.178
11,CGGCATGC,-0.102
12,ACTAGGGG,-0.318
13,TGCCTACA,-0.0912
14,AGGTATAA,0.226
15,CGTCGTGC,0.104
16,GCGGGGAC,-0.22
17,GTGGTTAA,0.185
18,AATGTAAA,0.21
19,AAGTGTCG,0.158
20,CGTCGGTC,0.0622
21,TACTTCCA,0.0981
22,ATCCACAC,-0.00864
23,GAGCACGA,-0.022
24,CGCGCTAG,-0.0223
25,ACTAATCG,0.122

row,Sequence,PBM E-score
1,GCCATACA,0.107
2,GATGATCA,0.0749
3,GGCCGTAA,-0.0992
4,ATAGGAGA,-0.305
5,AGCTAGAT,-0.0653
6,CCCCTTGA,-0.0989
7,TAGGTTCA,0.133
8,CCATATGG,-0.163
9,AAGCAGGA,-0.0289
10,TCTGCCAA,-0.0421
11,GGCCTTAA,-0.00592
12,AATGCGGA,0.114
13,AGACGATA,0.0503
14,GGGCTGTA,-0.217
15,TACCGGTA,0.0603
16,ATGAGAGA,0.126
17,ATGTGACC,-0.0585
18,AACCAAGT,0.115
19,CTGAGTCA,-0.0168
20,CATACCGA,-0.052
21,CCCCCAGC,-0.282
22,AGTCTGCC,-0.0468
23,AACCGAAA,0.167
24,AAGACTTA,0.00248
25,AGACCTGC,-0.179

row,Sequence,PBM E-score
1,CGACTGGA,-0.17
2,GGTCCCAA,-0.145
3,CCTGGTCA,-0.128
4,CACGCATG,-0.112
5,AGATCGTG,-0.0279
6,AAGGCCCA,-0.191
7,AATCATCT,0.0572
8,ACCTATCA,-0.0374
9,CTATACGA,0.0101
10,CACGGCGG,-0.168
11,AAGATAAG,0.0844
12,ACCTAGTA,-0.158
13,TTCTGCAA,0.106
14,ATACGCAT,0.195
15,ATATGCTC,0.154
16,CATTCTGA,0.142
17,GGATGGAC,-0.0795
18,ACAGTTCA,0.232
19,CGCCTCCA,0.0528
20,ATCACTGC,0.0655
21,GTCTGTAA,-0.0329
22,CTACCCGC,0.0191
23,CCTCCCGA,-0.203
24,TCACTGGA,0.00252
25,GAACGATC,-0.0144

row,Sequence,PBM E-score
1,CACCCTAA,0.103
2,GCGCTCAA,-0.23
3,CTCGACTC,0.0826
4,ACCTACAA,0.0597
5,GAAATTCC,0.263
6,ATGGTAAG,-0.0494
7,TATCAGGA,0.112
8,ACAGGTAC,-0.0953
9,AAATAGTT,0.227
10,AACGCGCC,-0.00177
11,CAAACATC,0.123
12,CCCATTGC,-0.0693
13,GCGGACGC,-0.0534
14,AGGGTTAC,-0.139
15,CGGCCCCG,-0.384
16,AAATCAAT,0.23
17,GCAGGCAA,0.00984
18,CTATCTAA,0.0148
19,CGATGCAC,-0.166
20,CAACCGCG,0.153
21,AACAAGAT,0.221
22,AGTCCAGG,-0.111
23,CACTCTAG,-0.0846
24,CCCGGAGG,-0.202
25,AGGGTTTC,-0.229

row,Sequence,PBM E-score
1,GCTGTCAC,-0.0684
2,CGGTTCCA,-0.06
3,GATCACAC,-0.135
4,CTGAAAAA,0.0159
5,AGAACGGG,-0.173
6,ACACCGCC,-0.104
7,ACAACGTA,0.0205
8,CCTTATTC,-0.146
9,ACCACATG,0.0622
10,CCGGAACA,0.447
11,GCTCTGAC,-0.193
12,GGCCCAAC,-0.219
13,TAAATGAA,0.143
14,ACCCCGTC,-0.298
15,ACTTAGGC,-0.218
16,CTGCCAAC,-0.136
17,AGTTAAAC,0.11
18,AACCATGC,0.0112
19,AAAGTCAA,0.199
20,ACGGCCAG,-0.14
21,CCGGTTAC,-0.143
22,CCGAGCCG,0.00927
